T1: hCD32a-R131 (human, UniProt P12318 36-218)
T1 construct: Purified FcgR protein generated in house; described with a C-terminal 6x poly-histidine tag; also called FcgRIIa-R131
T1 sequence (looked up): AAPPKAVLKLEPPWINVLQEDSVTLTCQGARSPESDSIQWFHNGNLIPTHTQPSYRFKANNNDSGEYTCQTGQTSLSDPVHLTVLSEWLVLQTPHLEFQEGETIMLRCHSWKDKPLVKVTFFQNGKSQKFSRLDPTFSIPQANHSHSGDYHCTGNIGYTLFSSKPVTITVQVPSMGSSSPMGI


Legend:
hCD64 = molecular target: T2, hCD64 (human, UniProt P12314 16-288, limits assumed); test: SPR (Biacore), FcgR analyte titration over protein A-captured dAb-Fc
hCD64, sequence (P12314 16-288 limits assumed): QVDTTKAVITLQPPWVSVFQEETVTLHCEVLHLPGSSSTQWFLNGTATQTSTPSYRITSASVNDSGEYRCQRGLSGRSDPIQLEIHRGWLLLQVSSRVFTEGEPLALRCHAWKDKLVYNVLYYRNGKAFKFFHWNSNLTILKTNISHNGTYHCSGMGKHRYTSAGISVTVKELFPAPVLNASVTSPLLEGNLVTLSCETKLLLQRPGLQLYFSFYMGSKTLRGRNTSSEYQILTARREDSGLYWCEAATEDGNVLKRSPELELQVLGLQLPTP
T2 construct: Purified FcgR protein generated in house; also called hFcgRI; FcgRI
Experimental: (§1) A second SPR assay for testing the interaction between antibodies or dAb-Fc proteins with FcgR proteins is a protein A capture method. These experiments are also performed on either a Biacore™ T100 or Biacore™ T200 instrument (GE Healthcare) at 25° C. For these studies, protein A is immobilized on flow cells 1-4 of a CM5 sensor chip using standard ethyl (dimethylaminopropyl) carbodiimide (EDC)/N-hydroxysuccinimide (NHS) chemistry, with ethanolamine blocking, in a running buffer of 10 mM HEPES pH 7.4, 150 mM NaCl, 3 mM EDTA, 0.05% surfactant p20, to a density of ˜3000 RU.

hCD32a-R131 = molecular target: T1, hCD32a-R131; test: as above
Experimental: as §1

hCD40-Fc = molecular target: T3, hCD40-Fc (human, UniProt P25942 partial chain); test: SPR, immobilized hCD40-Fc, dAb-Fc analyte (avidity)
hCD40-Fc, sequence (P25942 21-193): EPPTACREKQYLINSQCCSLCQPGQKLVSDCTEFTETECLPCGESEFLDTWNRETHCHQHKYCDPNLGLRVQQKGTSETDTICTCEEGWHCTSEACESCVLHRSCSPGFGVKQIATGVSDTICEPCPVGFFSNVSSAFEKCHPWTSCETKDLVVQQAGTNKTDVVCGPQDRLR
T3 construct: not shown: Fc part of hCD40-Fc, not described

Row | Binder | Kd (hCD64) [nM] | Kd (hCD32a-R131) [nM] | KDapparent (hCD40-Fc) [nM]
1 | 3h56-269-IgG4.1 (Fc fusion, also called BMS-986090) EVQLLESGGGLVQPGGSLRLSCAASGFTFRDYEMWWVRQAPGKGLERVSAINPQGTRTYYADSVKGRFTISRDNSKNTLYLQMNSLRAEDTAVYYCAKLPFRFSDRGQGTLVTVSSAST[human IgG4 Fc with S228P (EU numbers) skipped] | 2.8 | 2200 | 
2 | 3h56-269-IgG1-D265A (Fc fusion) EVQLLESGGGLVQPGGSLRLSCAASGFTFRDYEMWWVRQAPGKGLERVSAINPQGTRTYYADSVKGRFTISRDNSKNTLYLQMNSLRAEDTAVYYCAKLPFRFSDRGQGTLVTVSSAST[human IgG1 Fc with D265A (EU numbers) skipped] | 62 |  | 
3 | 3h56-269-IgG4.1 (Fc fusion, dAb-Fc fusion protein; also called BMS-986090) EVQLLESGGGLVQPGGSLRLSCAASGFTFRDYEMWWVRQAPGKGLERVSAINPQGTRTYYADSVKGRFTISRDNSKNTLYLQMNSLRAEDTAVYYCAKLPFRFSDRGQGTLVTVSSAST[human IgG4 Fc with S228P (EU numbers) skipped] |  |  | < 1
4 | 3h56-269-CT (Fc fusion, dAb-Fc fusion protein) EVQLLESGGGLVQPGGSLRLSCAASGFTFRDYEMWWVRQAPGKGLERVSAINPQGTRTYYADSVKGRFTISRDNSKNTLYLQMNSLRAEDTAVYYCAKLPFRFSDRGQGTLVTVSSAST[human IgG1 Fc with changes skipped] |  |  | < 1
5 | 3h56-269-CT (UCOE-CHO) (Fc fusion) EVQLLESGGGLVQPGGSLRLSCAASGFTFRDYEMWWVRQAPGKGLERVSAINPQGTRTYYADSVKGRFTISRDNSKNTLYLQMNSLRAEDTAVYYCAKLPFRFSDRGQGTLVTVSSAST[human IgG1 Fc with changes skipped] |  |  | < 1
6 | 3h56-269-IgG1-D265A (Fc fusion, dAb-Fc fusion protein) EVQLLESGGGLVQPGGSLRLSCAASGFTFRDYEMWWVRQAPGKGLERVSAINPQGTRTYYADSVKGRFTISRDNSKNTLYLQMNSLRAEDTAVYYCAKLPFRFSDRGQGTLVTVSSAST[human IgG1 Fc with D265A (EU numbers) skipped] |  |  | < 1

Reference: patent US20220106400A1 (Bristol-Myers Squibb, published 2022)
